Laboratory results: PubChem BioAssay AID1634 (National Center for Advancing Translational Sciences (NCATS), 2009)
Screen size: about 260,000 compounds; about 150 (0.058%) were called active. Inconclusive means that the source gave no clear call. Such entries were picked first, then a sample of the others. Calls follow the shape of the dose curve; as a rule, active = well fitted inhibition curve with a large enough effect; inconclusive = small, poorly fitted or top-dose-only effect; inactive = no such curve, though single readings can be large or run the other way. Where the call is inconclusive, the potency comes from a doubtful curve fit.

What follows are molecules tested against Pyruvate kinase PKM (Homo sapiens) (UniProt P14618) (assay: qHTS Assay for Inhibitors of Human Muscle isoform 2 Pyruvate Kinase). Details: purified PKM2, ATP generation, Kinase-Glo luminescence; series mostly up to 57.5 µM.
Outline: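 Coupled luciferase luminescence (Kinase-Glo) detects ATP generated from 0.1 mM ADP and 0.5 mM PEP in imidazole buffer pH 7.2 with KCl, MgCl2; 1 h at room temperature. Enzyme at intermediate activity; normalized to uninhibited and no-enzyme controls.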
Also: nearly all actives have a fitted effect of over 60% in size.
Potency is read from the fitted curve at half-maximal effect; tags tell the direction and shape of the fitted curve.

Sequence of UniProt P14618 (P14618 whole entry, looked up, canonical isoform): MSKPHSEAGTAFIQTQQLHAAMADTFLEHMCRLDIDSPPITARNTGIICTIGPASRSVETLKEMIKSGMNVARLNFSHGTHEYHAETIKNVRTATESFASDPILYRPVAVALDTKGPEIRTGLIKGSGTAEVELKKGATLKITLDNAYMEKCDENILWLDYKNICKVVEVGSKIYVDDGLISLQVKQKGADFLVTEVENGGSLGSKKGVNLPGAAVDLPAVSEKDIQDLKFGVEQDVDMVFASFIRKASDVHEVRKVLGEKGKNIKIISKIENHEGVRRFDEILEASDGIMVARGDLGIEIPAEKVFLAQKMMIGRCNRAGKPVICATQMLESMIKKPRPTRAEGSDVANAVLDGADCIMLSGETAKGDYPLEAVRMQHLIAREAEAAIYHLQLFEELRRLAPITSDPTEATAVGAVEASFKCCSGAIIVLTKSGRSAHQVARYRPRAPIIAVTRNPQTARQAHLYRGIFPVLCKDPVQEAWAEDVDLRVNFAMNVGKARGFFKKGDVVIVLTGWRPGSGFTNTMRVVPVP

Potency, inactive:
COC(C(=O)NCc1ccc(C)cc1)c1ccccc1 (stereo not given)
COCCN(C(=O)/C=C/c1cccc([N+](=O)[O-])c1)c1c(N)n(Cc2ccccc2)c(=O)[nH]c1=O
Cc1cc(N)n(-c2ccc(S(=O)(=O)c3ccc(C(C)C)cc3)cc2)n1
Cc1nc2ccc(S(=O)(=O)NCC(=O)N(C)Cc3ccco3)cc2s1
Cn1c(=O)oc2cc(S(=O)(=O)Nc3ccc4c(c3)OCO4)ccc21
CCCS(=O)(=O)N1CCN(S(=O)(=O)c2ccccc2)CC1
Oc1ccc(/C=N/N2CCN(C3c4ccccc4-c4ccccc43)CC2)cc1O
Cn1nccc1C(=O)N1CCN(c2ncccn2)CC1
Cc1ccc(C(=O)N/C(=C\c2cn(S(=O)(=O)N(C)C)c3ccccc23)C(=O)NCCN2CCOCC2)cc1
COC(=O)c1ccc(CSc2nc(C)nc3sc(C)c(C)c23)o1
Cc1ccc(NC(=S)N2CCN(S(=O)(=O)c3ccc(C)cc3)CC2)cc1
COc1cccc(N2CCN(C(=O)CN(c3ccc(C)cc3)S(=O)(=O)c3c(C)n[nH]c3C)CC2)c1
CCSc1nnc(NC(=O)Cc2cccc(OC)c2)s1
Cc1ccc(/C=C/C2=Cc3c(sc(NC(=O)CSc4n[nH]c(N)n4)c3C#N)C(C)(C)C2)o1
COC(=O)c1c(N2C(=O)CC(Sc3ncccc3C(=O)O)C2=O)sc(C)c1C (stereo not given)
Cn1c2ccc(F)cc2c2nnc(SCC(=O)Nc3cccc(O)c3)nc21
CCCS(=O)(=O)c1c(S(=O)(=O)CCC)c2c(C)cccn2c1C(=O)N/N=C/c1cc(O)cc(O)c1
O=C(Nc1ccc(N2CCOCC2)c(Cl)c1)c1ccc(-n2cnnc2)cc1Cl
C=CCNC(=O)c1c2c(nc3ccccc13)-c1ccccc1CC2
Cc1cc(C)cc(C(=O)NCC(=O)OCC(=O)N2CCN(S(=O)(=O)c3ccc4ccccc4c3)CC2)c1
O=c1c2ccccc2nc(-c2ccco2)n1/N=C/c1ccccc1O
Cc1ccc(CNC(=O)[C@H]2C[C@@H]2[C@H](NP(=O)(c2ccccc2)c2ccccc2)c2ccccc2)o1
Cc1cc(C)n2nc(CNS(=O)(=O)c3ccc(F)c(C)c3)nc2n1
C#CC(C)(C)NC(=O)c1ccc(-c2ccccc2F)cc1
CC(C)Nc1ncnc2c1nnn2Cc1ccccc1

Potency, active:
CN(C)c1ccc(N/C=C/C(=O)c2ccco2)cc1 14.1 µM
COc1ccccc1C(=O)Nc1nc2ccccc2[nH]1 15.8 µM
Cc1cccc(/C(N)=N/OC(=O)c2ccc3c(c2)OCO3)c1 11.2 µM
O=C(Nc1ccccn1)c1cc2ccccc2o1 12.6 µM

Potency, inconclusive:
O=C(Nc1ccc2c(c1)OCO2)c1cccs1 28.2 µM [falling, single point]
Cc1ccccc1-c1cc2c(nn1)-c1ccccc1C2=O 20 µM [falling, partial curve]
C=CCn1c(SCc2nc3ccccc3c(=O)[nH]2)nc2sc3c(c2c1=O)CCCC3 39.8 µM [falling, single point]
CC(C)N=C1NN=C(c2ccc(F)cc2)CS1 31.6 µM [falling, single point]
C/C(=N\NC(=O)c1ccc2c(c1)OCO2)c1ccco1 17.8 µM [falling, partial curve]
N#C/C(C(N)=O)=c1/ccc2c(c1)N1C3=C(CCCC3)CC3CCCCC31N=2 (stereo not given) 39.8 µM [falling, single point]
COc1ccc(-c2nc(C)c(C(C)=O)n2O)cc1 22.4 µM [falling, partial curve]
Cc1csc(NC(=O)c2ccc(N3CCCC3=O)cc2)n1 39.8 µM [falling, single point]
Cc1c(Nc2cc(N3CCOCC3)c3nonc3c2[N+](=O)[O-])c(=O)n(-c2ccccc2)n1C 7.08 µM [falling, single point]
COCCOCCn1c(/C=C/c2ccccc2)nc2ccccc21 25.1 µM [falling, single point]
Cn1nccc1C(=O)Nc1ccc2c(c1)OCCO2 35.5 µM [falling, single point]
COc1ccc(/C=C(\C#N)c2nc3ccccc3[nH]2)cc1O 11.2 µM [falling, partial curve]
Cc1ccc2nc(-c3ccccn3)oc2c1 15.8 µM [falling, partial curve]
CN(C)c1ccc2nc3ccc(=[N+](C)C)cc-3sc2c1 39.8 µM [falling, single point]
O=C(NN=C1CCCC1)C1COc2ccccc2O1 (stereo not given) 8.91 µM [falling, single point]
COc1ccc(NC(=S)N2CCN(C/C=C/c3ccccc3)CC2)c(OC)c1 3.98 µM [falling, full curve, poor fit]
Cc1ccc(-c2nnc(N3CCOCC3)c3ccccc23)cc1S(=O)(=O)NCc1cccnc1 8.91 µM [falling, single point]
Cc1nonc1C(=O)N/N=C/c1ccc(O)cc1 17.8 µM [falling, partial curve]
O=S1(=O)C[C@@H]2N=C(N/N=C/c3ccccc3)S[C@@H]2C1 12.6 µM [falling, partial curve]
O=C(O)/C=C/C(=O)Nc1ccc2c(c1)C(=O)c1ccccc1C2=O 39.8 µM [falling, single point]
N/C(=N\OC(=O)c1ccc(Cl)cc1)c1nonc1N 15.8 µM [falling, partial curve]
c1ccc(Cn2cc(CN3CCCCO3)c(-c3ccc4c(c3)OCO4)n2)cc1 5.62 µM [falling, single point]
CCc1ccc(C)c(OC(=O)c2cncc(Br)c2)c1 6.31 µM [falling, single point]
CCC(=O)Nc1cc2nn(-c3ccc(C)cc3)nc2cc1C 6.31 µM [falling, single point]
COc1c([N+](=O)[O-])c(=O)n(-c2ccccc2)c2ccccc12 39.8 µM [falling, single point]
O=C(COc1ncnc2cc([N+](=O)[O-])ccc12)NC1CCCCC1 39.8 µM [falling, single point]
O=C(CC(c1ccccc1)c1ccccc1)NCC1CCCO1 (stereo not given) 0.0282 µM [falling, full curve, poor fit]
CC(=C/c1ccco1)/C=N/N1CCN(c2ccccc2)CC1 20 µM [falling, partial curve]
Cc1ccc(S(=O)(=O)N2CCOCC2)cc1NC(=O)CSc1n[nH]c(N)n1 31.6 µM [falling, single point]
S=C(NCCCN1CCOCC1)Nc1ccc(Nc2ccccc2)cc1 39.8 µM [falling, single point]
O=C(Nc1ccccc1)c1ccc2c(c1)OCCO2 31.6 µM [falling, single point]
COc1ccc(C(=O)Nc2nc3ccccc3[nH]2)cc1 12.6 µM [falling, partial curve]
CCN1/C(=C2\C(=O)N(C)C(=S)N2C)C=Cc2cc(C)ccc21 31.6 µM [falling, single point]
Cn1cc(Br)c(C(=O)Nc2ncc(Br)s2)n1 25.1 µM [falling, single point]
O=C(O)CCN(Cc1ccccc1)S(=O)(=O)c1ccc(Cl)cc1F 39.8 µM [falling, single point]
CCN1CCN(C(=O)CN(c2ccccc2C)S(C)(=O)=O)CC1 35.5 µM [falling, single point]
N#CCCN1CCN(CCC#N)CC1 0.251 µM [falling, full curve]
O=C1C=CC(=O)C(C2=C3C(=O)N(CCc4ccccc4)CC(=O)N3CCC2)=C1 39.8 µM [falling, single point]
Cc1ccccc1NC(=O)c1onc2c1CCCC2 12.6 µM [falling, partial curve]
CN(C)c1ccc(/C=N/NC(=O)c2ccccc2)cc1 20 µM [falling, partial curve]
COCCNC(=O)c1ccccc1NC(=O)c1ccc(OC)c(OC)c1 0.178 µM [falling, full curve, poor fit]
Oc1ccc(/C=N/Nc2nccnc2Cl)cc1 14.1 µM [falling, partial curve, poor fit]
COc1cc2c(cc1OC)CN(CC(=O)Nc1ccc(Cl)c(S(=O)(=O)N(C)C)c1)CC2 5.62 µM [falling, single point]
O=C(N/N=C/c1ccc(N2CCOCC2)cc1)c1ccccn1 17.8 µM [falling, partial curve]
O=C(Nc1ccc(CN2CCCCC2)cc1)Nc1ccc(Br)cc1Cl 3.55 µM [falling, single point]
Cc1ccc2nc(-c3ccc(O)c(O)c3)cn2c1 39.8 µM [falling, single point]
